From the antibiotic and cytotoxicity screens of Wong et al. (2023) come the findings set out here.

The other results are listed elsewhere or left out.

This test has as its system HSkMC (human skeletal muscle cells). The experiment in a line: cytotoxicity call (relative viability < 0.9). Conditions: 10 µM.
As for `Cc1ccc(S(=O)(=O)N(C)C[C@H]2Oc3ccc(NS(C)(=O)=O)cc3C(=O)N([C@H](C)CO)C[C@H]2C)cc1`, the cytotoxicity call is “inactive”.
For `C[C@@H]1CN([C@@H](C)CO)C(=O)c2cc(NC(=O)NC3CCCCC3)ccc2O[C@@H](C)CCCCO[C@H]1CN(C)S(=O)(=O)c1ccc(F)cc1` the value was “inactive”; for `COCC#Cc1ccc2c(c1)O[C@H](CN(C)C(=O)c1ccccc1)[C@H](C)CN([C@H](C)CO)S2(=O)=O`, “inactive”.
`CN1C(=O)c2cc(NC(=O)c3cnccn3)ccc2OC[C@@H]2O[C@@H](CC(=O)NCC3CCCCC3)CC[C@H]21`: the cytotoxicity call was “inactive”.
For `C[C@H](CO)N1C[C@H](C)[C@@H](CN(C)Cc2ccc3c(c2)OCO3)Oc2c(NC(=O)c3ccncc3)cccc2C1=O` the value was “inactive”; for `C[C@@H]1CN([C@@H](C)CO)C(=O)CCCn2cc(nn2)CO[C@@H]1CN(C)C(=O)Nc1ccc2c(c1)OCO2`, “inactive”; for `CN(C)CCCCNC(=O)[C@H]1C[C@H]2C(=O)N3CCC[C@H]3C(=O)N2[C@H]1c1cccc(OCCO)c1`, “inactive”.
The entry for `Cc1noc(C)c1S(=O)(=O)N(C)C[C@H]1Oc2ccc(NS(=O)(=O)c3cccs3)cc2CC(=O)N([C@@H](C)CO)C[C@@H]1C` is “inactive”; for `C[C@H](N)C12CC3CC(CC(C3)C1)C2` it is “inactive”.
Take `Cl.[NaH]`: the cytotoxicity call was “inactive”.
The entry for `Cc1ccc2c(=O)c3ccccc3n(CCCN)c2c1C` is “inactive”; for `CC(C)(C)NC(=O)N1CCC(CN)CC1` it is “inactive”.
